PubChem BioAssay AID624171 (National Center for Advancing Translational Sciences (NCATS), 2012)
About 1,200 (0.29%) of roughly 410,000 compounds were called active. Inconclusive results, whose numbers are uncertain, are shown with a selection of clear calls. Calls come from the whole dose curve; as a rule, active = well fitted activation curve with a large enough effect; inconclusive = small, poorly fitted or top-dose-only effect; inactive = flat fitted curve, though single readings scatter. Where the call is inconclusive, the potency comes from a doubtful curve fit.

Experiment: qHTS of Nrf2 Activators; note: nearly all actives have a fitted effect of over 65% in size
Details: AREc32 ARE-luciferase reporter (MCF7-derived line), luminescence, 24 h; series mostly up to 46.1 µM
Procedure, shortened: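 AREc32_Fluc, 1000 cells/well, OPTI-MEM + 5% FBS, o/n 37 deg C 5% CO2; 23 nL cpd by pin tool, 24 hr; Steady-Glo 30 min RT, luminescence.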
Potency is the fitted concentration of half-maximal effect; tags give direction and shape of the fitted curve.

Potency, inconclusive:
O=C1CN(CC(=O)Nc2cccc(Cl)c2Cl)c2ccccc2N1 17.8 µM [activator, single point]
CSC1=N/C(=C\C=C\c2cccs2)C(=O)S1 14.1 µM [activator, single point]
O=C(Nc1ccc(Cl)cn1)Nc1cccs1 10 µM [activator, partial curve, poor fit]
O=C(/C=C/c1cccc(Cl)c1)c1nc2ccccc2[nH]1 31.6 µM [activator, single point]
CC(=O)CCS(=O)(=O)c1ccc(Oc2ccc(S(=O)(=O)CCC(C)=O)cc2)cc1 17.8 µM [activator, single point]
O=C(N/N=C/C(Br)=C/c1ccccc1)c1cc(-c2ccco2)[nH]n1 17.8 µM [activator, partial curve, poor fit]
Oc1ccc(Cl)cc1N=Cc1sc2ccccc2c1Cl 7.08 µM [activator, partial curve, poor fit]
O=[N+]([O-])c1cnc(Nc2ccc(Cl)cn2)c([N+](=O)[O-])c1 10 µM [activator, partial curve]
Cc1nc2ccccc2c(=O)n1NC(=O)/C=C/c1ccccc1Cl 11.2 µM [activator, partial curve]
O=C1CC(c2ccco2)c2ccc3ccccc3c2N1 (centres undefined) 11.2 µM [activator, single point]
Cn1c(NC(=O)/C=C/c2ccco2)cc(=O)n(C)c1=O 0.891 µM [activator, full curve, poor fit]
CCS(=O)(=O)c1ncc(Cl)c(C(=O)N(Cc2ccccc2)c2ccc(OC)cc2)n1 3.55 µM [activator, single point]
CN(C)CCC(=O)C(Cc1ccccc1)c1ccccc1 (centres undefined) 3.55 µM [activator, single point]
COC(=O)c1ccccc1NC(=O)c1cc(-c2cccs2)on1 0.891 µM [activator, full curve, poor fit]
O=C(CSC1=NCCS1)Nc1nc2c(s1)CCCC2 15.8 µM [activator, partial curve, poor fit]
C/C(=N/NC(=O)C1CC1(c1ccccc1)c1ccccc1)c1ccco1 (centres undefined) 10 µM [activator, partial curve]
COc1ccc(CN2CSC(=S)N(Cc3ccccc3)C2)cc1 22.4 µM [activator, single point]
O=C(/C=C/c1ccco1)Nc1cccc(C(=O)Nc2ccccc2C(=O)O)c1 35.5 µM [activator, partial curve, poor fit]
c1ccc(-c2nccc(-c3ccco3)n2)nc1 17.8 µM [activator, partial curve, poor fit]
Clc1ccc(-c2csc(-c3cccnc3)n2)s1 11.2 µM [activator, partial curve, poor fit]
COc1ccc(OC)c(NC(=O)CSc2nc(-c3ccccc3C)nc3cc(=O)[nH]n23)c1 31.6 µM [activator, single point]
COc1cccc(C(=O)/C=C/c2ccc(N3CCCCC3)c([N+](=O)[O-])c2)c1 31.6 µM [activator, single point]
CCS(=O)(=O)c1ccc(Sc2nncn2C)c([N+](=O)[O-])c1 31.6 µM [activator, single point]
O=C(COCc1cc(-c2cccs2)on1)Nc1cccc(Cl)c1Cl 14.1 µM [activator, partial curve]
CC(=O)Nc1sc(N/N=C\c2cccc(Cl)c2)nc1-c1cccs1 12.6 µM [activator, partial curve, poor fit]
CC1(C)COC(/C=C/c2ccc([N+](=O)[O-])cc2)=N1 11.2 µM [activator, partial curve]

Potency, active:
O=C1C(Cl)=C(N2CCN(c3ccccc3[N+](=O)[O-])CC2)C(=O)c2ccccc21 7.94 µM
CCn1c(=N)n(CC(=O)c2ccco2)c2ccccc21 10 µM
O=C(CCS(=O)(=O)Cc1ccccc1)Nc1ncc([N+](=O)[O-])s1 12.6 µM
CCOc1cc(C2NN=C(c3ccccc3)S2)ccc1OCc1ccc(F)cc1 (centres undefined) 11.2 µM
C/C(=N\Nc1nccnc1Cl)c1ccc(Br)cc1 11.2 µM
CC(=O)Oc1c(Cl)cc(Cl)cc1/C=C/c1ccc2ccccc2n1 12.6 µM

Potency, inactive:
Cc1ccc(S(=O)(=O)N2CCN(c3ccc4nnc(-c5ccccc5)n4n3)CC2)cc1
CCOC(=O)c1[nH]c2c(c1Cc1ccccc1)C(=O)CC(c1ccc(OC)cc1)C2 (centres undefined)
O=c1cc(-c2ccccc2)nc(SCc2ccccc2)[nH]1
COc1cccc(NC(=O)c2ccccc2F)c1
COc1ccc(NC(=O)CCN2CCN(c3ccc(F)cc3)CC2)cc1
Oc1ccc(-c2c(-c3ccsc3)sc3ccccc23)cc1
c1ccc(-c2cnc(SCCN3CCOCC3)n2CC2CCCO2)cc1 (centres undefined)
CCC(C)NC(=O)CN1C(=O)NC2NC(=O)NC21 (centres undefined)
O=C(c1cnc2cc(-c3ccccc3)nn2c1)c1cc([N+](=O)[O-])ccc1O
CCOc1cc(C(=O)Nc2cnccn2)cc(OCC)c1OCC
COc1ccc2cc(C(=O)NCCc3ccccc3)[nH]c2c1
O=C(NCc1ccco1)Nc1ccc(Br)cc1
Cc1cc(C)c2c(c1)cc(C)c1nnc(SCC(=O)Nc3ccc(S(=O)(=O)N4CCCCC4)cc3)n12
CC(C)(C)NC(=O)c1ccc2nccnc2c1
COc1ccc(-c2nn(-c3ccccc3)cc2CO)cc1OC
COc1ccc(-c2nc(-c3ccccn3)ncc2S(C)(=O)=O)cc1
CSc1cccc(NC(=O)C2CCN(c3ncnc4c3nc3n4CCCCC3)CC2)c1
